The source of these data is PMC10668032.

Some of the results follow. At the low end of the ranking the order means little.

The test concerns the target SIX1 homeodomain (reference allele) (UniProt Q15475). As to the kind of experiment: universal protein binding microarray. As to conditions: Universal all-10-mer PBM (8x60K, AMADID 030236), 300 nM GST-tagged protein, Alexa Fluor 488 anti-GST; buffer, salt, pH and temperature not stated; high values mean tight binding; most listed sequences are background and not binding sites; double strand, one strand shown.
GCACTACA: the binding signal is -0.0588 E-score.

Consider AATGCGTC, for which the binding signal was -0.221 E-score.

For the sequence AAAAAGTG, the binding signal is -0.24 E-score.

As to AACCCACA, the binding signal worked out at 0.0233 E-score.

In the case of ACCCCCGA, the binding signal is 0.217 E-score.

GATGCACA: the binding signal was -0.0648 E-score.

Consider AGTTTACG, for which the binding signal is -0.138 E-score.

For GGCCGGAA, the binding signal is -0.0656 E-score.

For the sequence CAAGTGTA, the binding signal stood at 0.00636 E-score.

Regarding TGGTGGAA, the binding signal was -0.125 E-score.

Take AACTTAAC: the binding signal was -0.161 E-score.

As to ACGTAGTG, the binding signal is -0.0157 E-score.

For the sequence CTTCCTAA, the binding signal is -0.0104 E-score.

Consider AATCATGG, for which the binding signal is -0.18 E-score.

With GACAGCCA, the binding signal was -0.165 E-score.

As to AGCAGTCA, the binding signal is -0.314 E-score.

AAAGACAT: the binding signal is -0.23 E-score.

For AACTTGCA, the binding signal is -0.121 E-score.

As for GCCAGGAA, the binding signal is -0.112 E-score.

Turning to AGAATATA, the binding signal was 0.11 E-score.

Turning to GGCGGAGA, the binding signal was found to be 0.0982 E-score.

In the case of ATAATCCA, the binding signal came to 0.27 E-score.

Regarding ATTGGTGA, the binding signal is -0.034 E-score.

For AACTCACC, the binding signal was -0.112 E-score.

Regarding ACCCCCGT, the binding signal is 0.0468 E-score.

In the case of GCACTTAA, the binding signal is -0.214 E-score.

Take CGGAACAA: the binding signal came to 0.0488 E-score.

On to CAAGGCTG, for which the binding signal was -0.127 E-score.

For TCCGTGCA, the binding signal was -0.0125 E-score.

For GCCATCGA, the binding signal is -0.197 E-score.

For CATGGTTC, the binding signal turned out to be 0.0116 E-score.

Take AAACGAAG: the binding signal is -0.203 E-score.

On to CTTTGGGA, for which the binding signal was -0.0986 E-score.

Take GCTGGGAC: the binding signal was -0.0965 E-score.

As for ACGAGTTG, the binding signal was -0.118 E-score.

On to CATGTATC, for which the binding signal was determined as 0.403 E-score.

Take CGTTTGAG: the binding signal was found to be 0.0996 E-score.

On to AGAGTGTG, for which the binding signal is -0.0948 E-score.

Regarding AACCGTCC, the binding signal was -0.292 E-score.

In the case of GTAGTCAA, the binding signal is -0.0087 E-score.

For CGCGTTAG, the binding signal was -0.0928 E-score.

In the case of GCACATTA, the binding signal is -0.0153 E-score.

Turning to CCCTAAGC, the binding signal is -0.0531 E-score.

On to ATACGCAG, for which the binding signal was 0.314 E-score.

For TCCACACA, the binding signal is -0.0782 E-score.

As to AGGCCTGC, the binding signal is -0.256 E-score.

As for CGTTGCAG, the binding signal is -0.0761 E-score.

As for ACGCCTAC, the binding signal was -0.306 E-score.

On to AGGTCTTC, for which the binding signal was -0.141 E-score.

In the case of AGCCATCA, the binding signal is -0.211 E-score.

On to ACTCTATC, for which the binding signal worked out at 0.111 E-score.

On to ACTGGCGG, for which the binding signal is -0.128 E-score.

As to CGAATGGC, the binding signal is -0.249 E-score.

As for GATTCTCA, the binding signal came out at 0.104 E-score.

For the sequence TCTCGAAA, the binding signal was -0.0894 E-score.

Take GATATGAA: the binding signal is 0.259 E-score.

For the sequence AGGCAGTC, the binding signal is -0.213 E-score.

Take TAGACGGA: the binding signal was found to be 0.137 E-score.

For the sequence AGCCCCTG, the binding signal was -0.0581 E-score.

For CGACGATA, the binding signal was determined as 0.342 E-score.

For the sequence AAAGCAGG, the binding signal was -0.144 E-score.

As to AGGAGAAT, the binding signal is 0.0659 E-score.

On to CTGGGCGC, for which the binding signal is -0.219 E-score.

Regarding ATGCTCGG, the binding signal was -0.141 E-score.

Take CGGGCATC: the binding signal came to 0.0739 E-score.

On to AACAAACC, for which the binding signal is -0.0424 E-score.

In the case of GATCAGGA, the binding signal is 0.339 E-score.

Take GATCCGCA: the binding signal amounted to 0.411 E-score.

As to CTATGGAG, the binding signal is -0.0755 E-score.

On to ATCGCAAC, for which the binding signal was 0.198 E-score.

On to TGGCGACA, for which the binding signal was -0.0416 E-score.

As to ACCAACCC, the binding signal is -0.0303 E-score.

Consider CGAGCTCC, for which the binding signal is -0.0198 E-score.

On to CTTAAAAA, for which the binding signal was -0.239 E-score.

For AGGAGCTC, the binding signal was -0.13 E-score.

CTGACCTA: the binding signal was -0.114 E-score.

Take CAACCCGC: the binding signal is -0.117 E-score.

For CCACCGAC, the binding signal is -0.192 E-score.

For TGAAAACA, the binding signal is -0.0728 E-score.

As to CCTTGGAA, the binding signal was -0.0364 E-score.

With CGATCACC, the binding signal stood at 0.34 E-score.

Consider AGTATACT, for which the binding signal was found to be 0.219 E-score.

With CCACCTCC, the binding signal came to 0.102 E-score.

On to GAAAAGTC, for which the binding signal was -0.344 E-score.

As to CCCAACAC, the binding signal was found to be 0.0936 E-score.

In the case of GGTCGACA, the binding signal is -0.0212 E-score.

For AGGCCGTA, the binding signal was determined as 0.197 E-score.

Take ATCATACC: the binding signal is 0.351 E-score.

For the sequence AAGGAGAG, the binding signal is -0.0784 E-score.

As for CAGGGCAC, the binding signal is -0.12 E-score.

As for GTTCTGTA, the binding signal was determined as 0.0731 E-score.

For ACCGAGAC, the binding signal is 0.0612 E-score.

With GCGGTATA, the binding signal stood at 0.375 E-score.

GAACAAAA: the binding signal is -0.0329 E-score.

Take AAAGTAAT: the binding signal was -0.0423 E-score.

Consider GTGCGTTA, for which the binding signal was -0.155 E-score.

With ACATCGTA, the binding signal is 0.0956 E-score.

Turning to AAAACGAC, the binding signal was -0.249 E-score.

As for GAAAATTA, the binding signal is -0.22 E-score.

On to TAGCCTGA, for which the binding signal was -0.113 E-score.

Take CGGGGACG: the binding signal is -0.115 E-score.

As to GAGATAGA, the binding signal was 0.183 E-score.

Take ATTCGCCC: the binding signal is -0.153 E-score.

Turning to CGGACACA, the binding signal is -0.0971 E-score.

As for CCTAAGAC, the binding signal was 0.0278 E-score.

With AATTGGAC, the binding signal was -0.128 E-score.

Consider CACCTCCC, for which the binding signal was 0.015 E-score.

Turning to CAGCCGCC, the binding signal was -0.187 E-score.

With AGCTTGGC, the binding signal was -0.166 E-score.

Consider AAAATCGA, for which the binding signal is -0.0662 E-score.
